Data from publication PMC9911399, “Two distinct binding modes provide the RNA-binding protein RbFox with extraordinary sequence specificity”.
Positions count from the first letter of the chain named. Some of the results follow.

T1: RBFOX1 RRM RbFoxmut (Fox-RRM*) (Homo sapiens, UniProt Q9NWB1 109-208, R118D;E147R;N151S;E152T)
T1 sequence: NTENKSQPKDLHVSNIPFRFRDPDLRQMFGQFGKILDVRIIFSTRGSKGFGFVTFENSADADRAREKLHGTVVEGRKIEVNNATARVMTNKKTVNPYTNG

B1: UGAGUCA (DNA:RNA)
RNA: GGGAGACCGGAAUUCAGAUUGUCCUGAGUCAUUAAAUCCCGUCGUAGCCACCA
DNA 1: CAATCTGAATTCCGGTCTCCC
DNA 2: TGGTGGCTACGACGGGATT
B2: CUGCGUU (DNA:RNA)
RNA: GGGAGACCGGAAUUCAGAUUGUCCCUGCGUUUUAAAUCCCGUCGUAGCCACCA
DNA 1: CAATCTGAATTCCGGTCTCCC
DNA 2: TGGTGGCTACGACGGGATT
B3: AUGAUUC (DNA:RNA)
RNA: B2 RNA with C25A, C28A, G29U, U31C
DNA 1: CAATCTGAATTCCGGTCTCCC
DNA 2: TGGTGGCTACGACGGGATT
B4: CUGAAUA (DNA:RNA)
RNA: B2 RNA with C28A, G29A, U31A
DNA 1: CAATCTGAATTCCGGTCTCCC
DNA 2: TGGTGGCTACGACGGGATT
B5: AAUAGCG (DNA:RNA)
RNA: B2 RNA with C25A, U26A, G27U, C28A, U30C, U31G
DNA 1: CAATCTGAATTCCGGTCTCCC
DNA 2: TGGTGGCTACGACGGGATT
B6: CUGGUCA (DNA:RNA)
RNA: B1 RNA with U25C, G26U, A27G
DNA 1: CAATCTGAATTCCGGTCTCCC
DNA 2: TGGTGGCTACGACGGGATT
B7: CUCAAAC (DNA:RNA)
RNA: B2 RNA with G27C, C28A, G29A, U30A, U31C
DNA 1: CAATCTGAATTCCGGTCTCCC
DNA 2: TGGTGGCTACGACGGGATT
B8: AUGCGUA (DNA:RNA)
RNA: B2 RNA with C25A, U31A
DNA 1: CAATCTGAATTCCGGTCTCCC
DNA 2: TGGTGGCTACGACGGGATT
B9: AAGUGCU (DNA:RNA)
RNA: B2 RNA with C25A, U26A, C28U, U30C
DNA 1: CAATCTGAATTCCGGTCTCCC
DNA 2: TGGTGGCTACGACGGGATT
B10: GGUUUCG (DNA:RNA)
RNA: B1 RNA with U25G, A27U, G28U, A31G
DNA 1: CAATCTGAATTCCGGTCTCCC
DNA 2: TGGTGGCTACGACGGGATT
B11: GUUAUUC (DNA:RNA)
RNA: B2 RNA with C25G, G27U, C28A, G29U, U31C
DNA 1: CAATCTGAATTCCGGTCTCCC
DNA 2: TGGTGGCTACGACGGGATT
B12: GUUGUCG (DNA:RNA)
RNA: B1 RNA with U25G, G26U, A27U, A31G
DNA 1: CAATCTGAATTCCGGTCTCCC
DNA 2: TGGTGGCTACGACGGGATT
B13: UUAGUCA (DNA:RNA)
RNA: B1 RNA with G26U
DNA 1: CAATCTGAATTCCGGTCTCCC
DNA 2: TGGTGGCTACGACGGGATT
B14: CACCCUC (DNA:RNA)
RNA: B2 RNA with U26A, G27C, G29C, U31C
DNA 1: CAATCTGAATTCCGGTCTCCC
DNA 2: TGGTGGCTACGACGGGATT
B15: CACGUCU (DNA:RNA)
RNA: B1 RNA with U25C, G26A, A27C, A31U
DNA 1: CAATCTGAATTCCGGTCTCCC
DNA 2: TGGTGGCTACGACGGGATT
B16: UGCGAUC (DNA:RNA)
RNA: B1 RNA with A27C, U29A, C30U, A31C
DNA 1: CAATCTGAATTCCGGTCTCCC
DNA 2: TGGTGGCTACGACGGGATT
B17: GCGGCUC (DNA:RNA)
RNA: B2 RNA with C25G, U26C, C28G, G29C, U31C
DNA 1: CAATCTGAATTCCGGTCTCCC
DNA 2: TGGTGGCTACGACGGGATT
B18: AGUGGAU (DNA:RNA)
RNA: B2 RNA with C25A, U26G, G27U, C28G, U30A
DNA 1: CAATCTGAATTCCGGTCTCCC
DNA 2: TGGTGGCTACGACGGGATT
B19: ACAUGUU (DNA:RNA)
RNA: B2 RNA with C25A, U26C, G27A, C28U
DNA 1: CAATCTGAATTCCGGTCTCCC
DNA 2: TGGTGGCTACGACGGGATT
B20: AACCGGA (DNA:RNA)
RNA: B2 RNA with C25A, U26A, G27C, U30G, U31A
DNA 1: CAATCTGAATTCCGGTCTCCC
DNA 2: TGGTGGCTACGACGGGATT
B21: GGCUGAU (DNA:RNA)
RNA: B2 RNA with C25G, U26G, G27C, C28U, U30A
DNA 1: CAATCTGAATTCCGGTCTCCC
DNA 2: TGGTGGCTACGACGGGATT
B22: UAAACAC (DNA:RNA)
RNA: B1 RNA with G26A, G28A, U29C, C30A, A31C
DNA 1: CAATCTGAATTCCGGTCTCCC
DNA 2: TGGTGGCTACGACGGGATT
B23: AUCUGUC (DNA:RNA)
RNA: B2 RNA with C25A, G27C, C28U, U31C
DNA 1: CAATCTGAATTCCGGTCTCCC
DNA 2: TGGTGGCTACGACGGGATT
B24: CCAAUCG (DNA:RNA)
RNA: B1 RNA with U25C, G26C, G28A, A31G
DNA 1: CAATCTGAATTCCGGTCTCCC
DNA 2: TGGTGGCTACGACGGGATT
B25: UUACGGU (DNA:RNA)
RNA: B2 RNA with C25U, G27A, U30G
DNA 1: CAATCTGAATTCCGGTCTCCC
DNA 2: TGGTGGCTACGACGGGATT
B26: UGAUCGG (DNA:RNA)
RNA: B1 RNA with G28U, U29C, C30G, A31G
DNA 1: CAATCTGAATTCCGGTCTCCC
DNA 2: TGGTGGCTACGACGGGATT
B27: GCGUAGA (DNA:RNA)
RNA: B2 RNA with C25G, U26C, C28U, G29A, U30G, U31A
DNA 1: CAATCTGAATTCCGGTCTCCC
DNA 2: TGGTGGCTACGACGGGATT
B28: UGUUAUC (DNA:RNA)
RNA: B1 RNA with A27U, G28U, U29A, C30U, A31C
DNA 1: CAATCTGAATTCCGGTCTCCC
DNA 2: TGGTGGCTACGACGGGATT
B29: UCAGUAC (DNA:RNA)
RNA: B1 RNA with G26C, C30A, A31C
DNA 1: CAATCTGAATTCCGGTCTCCC
DNA 2: TGGTGGCTACGACGGGATT
B30: CAGAAAG (DNA:RNA)
RNA: B2 RNA with U26A, C28A, G29A, U30A, U31G
DNA 1: CAATCTGAATTCCGGTCTCCC
DNA 2: TGGTGGCTACGACGGGATT
B31: GCAGUGU (DNA:RNA)
RNA: B1 RNA with U25G, G26C, C30G, A31U
DNA 1: CAATCTGAATTCCGGTCTCCC
DNA 2: TGGTGGCTACGACGGGATT

These binders were tested against T1, RBFOX1 RRM RbFoxmut (Fox-RRM*) (assay: EMSA; HiTS-Eq, 1 nM pool, 10 min; buffer printed only for the single-RNA assays: 10 mM Tris pH 7.5, 150 mM NaCl, 3.4 mM EDTA, 0.001% NP-40, 30 C). Details: tags: His6 N-terminal (pET28a); label: 5' 32P.
How it was run: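 Relative association constants, normalised to the cognate motif, were derived by comparing read counts of each RNA species with those of the control reaction. The RNA sequenced was the free fraction, separated by 8% native PAGE after a 10 min equilibration in 50 µL of 1 nM 5′-radiolabelled RNA (7 randomized nucleotides) with increasing concentrations of purified wild-type or mutant RbFox RRM.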
B1 was tested, and the binding signal was 0.151 KA relative to UGCAUGU.
B2 was tested, and the binding signal was 0.0925 KA relative to UGCAUGU.
In the case of B3, the binding signal is reported as 0.139 KA relative to UGCAUGU.
With B4 the binding signal was 0.0906 KA relative to UGCAUGU.
With B5 the binding signal was 0.104 KA relative to UGCAUGU.
In the case of B6, the binding signal is reported as 0.102 KA relative to UGCAUGU.
For B7, the binding signal was 0.0681 KA relative to UGCAUGU.
B8 was tested, and the binding signal was 0.231 KA relative to UGCAUGU.
B9 was tested, and the binding signal was 0.106 KA relative to UGCAUGU.
With B10 the binding signal was 0.219 KA relative to UGCAUGU.
In the case of B11, the binding signal is reported as 0.0819 KA relative to UGCAUGU.
B12 was tested, and the binding signal was 0.145 KA relative to UGCAUGU.
In the case of B13, the binding signal is reported as 0.103 KA relative to UGCAUGU.
With B14 the binding signal was 0.0678 KA relative to UGCAUGU.
In the case of B15, the binding signal is reported as 0.0849 KA relative to UGCAUGU.
B16 was tested, and the binding signal was 0.286 KA relative to UGCAUGU.
For B17, the binding signal was 0.0801 KA relative to UGCAUGU.
With B18 the binding signal was 0.101 KA relative to UGCAUGU.
For B19, the binding signal was 0.127 KA relative to UGCAUGU.
In the case of B20, the binding signal is reported as 0.0684 KA relative to UGCAUGU.
With B21 the binding signal was 0.12 KA relative to UGCAUGU.
B22 was tested, and the binding signal was 0.0845 KA relative to UGCAUGU.
In the case of B23, the binding signal is reported as 0.349 KA relative to UGCAUGU.
With B24 the binding signal was 0.0689 KA relative to UGCAUGU.
With B25 the binding signal was 0.0805 KA relative to UGCAUGU.
For B26, the binding signal was 0.0919 KA relative to UGCAUGU.
For B27, the binding signal was 0.117 KA relative to UGCAUGU.
B28 was tested, and the binding signal was 0.351 KA relative to UGCAUGU.
With B29 the binding signal was 0.11 KA relative to UGCAUGU.
For B30, the binding signal was 0.0999 KA relative to UGCAUGU.
B31 was tested, and the binding signal was 0.136 KA relative to UGCAUGU.
